{"source": "paper PMC4336329", "about": "(PLoS ONE, 2015)", "note": "Out of some 310,000 compounds screened, about 14,000 (4.5%) showed an effect of 50% or more. Effects have a minus sign here. The list shows a part of the results.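 Note: peak tail current of the secondary pulse compared with the same well before compound.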"}
{"target": "human ether-à-go-go-related gene (hERG) potassium channel (human, UniProt Q12809)", "sequence (Q12809 whole entry, looked up)": "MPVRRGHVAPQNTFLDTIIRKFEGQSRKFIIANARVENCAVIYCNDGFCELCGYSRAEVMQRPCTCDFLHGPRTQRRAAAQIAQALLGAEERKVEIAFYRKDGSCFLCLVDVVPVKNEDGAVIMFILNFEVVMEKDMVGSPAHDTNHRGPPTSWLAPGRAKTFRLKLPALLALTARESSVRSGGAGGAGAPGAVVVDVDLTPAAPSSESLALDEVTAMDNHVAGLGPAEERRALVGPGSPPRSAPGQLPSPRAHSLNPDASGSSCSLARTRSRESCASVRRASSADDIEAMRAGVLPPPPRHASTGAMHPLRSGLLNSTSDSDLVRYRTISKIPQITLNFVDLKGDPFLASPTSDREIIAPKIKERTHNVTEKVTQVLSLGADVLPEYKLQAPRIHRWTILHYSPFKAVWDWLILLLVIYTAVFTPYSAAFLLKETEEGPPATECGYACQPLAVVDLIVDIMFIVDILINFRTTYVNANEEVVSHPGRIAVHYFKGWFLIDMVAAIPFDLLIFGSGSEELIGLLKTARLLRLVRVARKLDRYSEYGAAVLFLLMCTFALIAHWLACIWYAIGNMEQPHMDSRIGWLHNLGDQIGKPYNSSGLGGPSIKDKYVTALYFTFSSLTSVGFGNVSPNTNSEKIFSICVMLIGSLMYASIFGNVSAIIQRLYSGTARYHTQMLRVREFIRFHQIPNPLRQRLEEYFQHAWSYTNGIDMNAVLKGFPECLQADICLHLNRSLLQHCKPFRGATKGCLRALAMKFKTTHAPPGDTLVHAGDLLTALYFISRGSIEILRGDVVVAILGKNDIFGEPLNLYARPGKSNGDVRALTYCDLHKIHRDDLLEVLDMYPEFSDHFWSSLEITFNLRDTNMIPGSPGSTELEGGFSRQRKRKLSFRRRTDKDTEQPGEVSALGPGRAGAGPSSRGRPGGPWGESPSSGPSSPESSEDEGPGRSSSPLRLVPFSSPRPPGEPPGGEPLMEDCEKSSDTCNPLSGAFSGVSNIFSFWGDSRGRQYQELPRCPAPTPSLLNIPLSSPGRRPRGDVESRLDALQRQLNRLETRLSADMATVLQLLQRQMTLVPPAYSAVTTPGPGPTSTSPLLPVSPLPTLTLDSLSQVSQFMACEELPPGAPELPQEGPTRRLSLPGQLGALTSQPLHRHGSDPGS", "assay": "primary screen, population patch clamp on CHO cells stably expressing hERG", "units": {"hERG current change (%, negative = inhibition) at 10uM": "%"}}
{"compound": "C=CCNc1c2c(nc3nnnn13)CCCC2", "hERG current change (%, negative = inhibition) at 10uM": 11.7}
{"compound": "COc1ccc(Nc2ncc3c(n2)CC(c2ccc(C)cc2)CC3=O)cc1", "note": "(centres unmarked)", "hERG current change (%, negative = inhibition) at 10uM": -10.7}
{"compound": "O=C(c1ccc(Br)cc1)N1CCC2(CC1)NCCc1[nH]cnc12", "hERG current change (%, negative = inhibition) at 10uM": -65.8}
{"compound": "Cc1onc(-c2c(F)cccc2Cl)c1C(=O)Nc1cccc(Cn2cccn2)c1", "hERG current change (%, negative = inhibition) at 10uM": -6.12}
{"compound": "CCC(C)(C)NC(=O)C(c1cccc(OC)c1OC)N(CCOC)C(=O)CCC(=O)Nc1cc(C)on1", "note": "(centres unmarked)", "hERG current change (%, negative = inhibition) at 10uM": -3.49}
{"compound": "NC(=O)c1ccsc1NC(=O)C1CC1", "hERG current change (%, negative = inhibition) at 10uM": 8.68}
{"compound": "CCN1CCN(C(=S)Nc2cc(C(=O)OC)ccc2C(=O)OC)CC1", "hERG current change (%, negative = inhibition) at 10uM": 16.9}
{"compound": "NC(=O)c1ccc(NC(=O)CN2CCN(S(=O)(=O)c3ccc4c(c3)OCCO4)CC2)cc1", "hERG current change (%, negative = inhibition) at 10uM": -3.78}
{"compound": "Cc1cc(=O)[nH]c(SCc2ccc(Cl)cc2)n1", "hERG current change (%, negative = inhibition) at 10uM": 12.9}
{"compound": "C[C@H](N)c1nnc(SCC(=O)c2ccc(Cl)cc2)o1", "hERG current change (%, negative = inhibition) at 10uM": -6.79}
{"compound": "COCCCNC(=O)CNC(=S)N(Cc1ccccc1F)C1CCCCC1", "hERG current change (%, negative = inhibition) at 10uM": 4.18}
{"compound": "CN(C)NC(=O)c1ccsc1NC(=O)c1ccc(S(=O)(=O)N2CCCC2)cc1", "hERG current change (%, negative = inhibition) at 10uM": -25.6}
{"compound": "Cc1sc2nc(SC3CCOC3=O)n(Cc3ccccc3)c(=O)c2c1C", "note": "(centres unmarked)", "hERG current change (%, negative = inhibition) at 10uM": -9.22}
{"compound": "Cc1onc(-c2ccccc2Cl)c1C(=O)Nc1c(C)n(C)n(-c2ccccc2)c1=O", "hERG current change (%, negative = inhibition) at 10uM": -2.88}
{"compound": "O=C(NCC1CCCO1)c1c(O)c2cccc3c2n(c1=O)CCC3", "note": "(centres unmarked)", "hERG current change (%, negative = inhibition) at 10uM": 1.5}
{"compound": "COc1ccc(S(=O)(=O)N(C(C)=O)c2ccc3oc(=O)sc3c2)cc1", "hERG current change (%, negative = inhibition) at 10uM": -6.59}
{"compound": "c1ccc(C(c2nnnn2C2CCCC2)N2CCN(c3ccccc3)CC2)cc1", "note": "(centres unmarked)", "hERG current change (%, negative = inhibition) at 10uM": -14.9}
{"compound": "CCC1Oc2ccc(C)cc2N(CC(=O)N(Cc2ccc(C)o2)C2CCCC2)C1=O", "note": "(centres unmarked)", "hERG current change (%, negative = inhibition) at 10uM": -12.2}
{"compound": "CN(CC(=O)NC1CCCc2ccccc21)S(=O)(=O)c1cccs1", "note": "(centres unmarked)", "hERG current change (%, negative = inhibition) at 10uM": -10.6}
{"compound": "Cc1cc(Br)ccc1NC(=O)CSc1nnc(CN2CCOCC2)n1C", "hERG current change (%, negative = inhibition) at 10uM": 9.05}
{"compound": "O=C(Cc1n[nH]c(=O)[nH]c1=O)N/N=C/c1cccc(O)c1", "hERG current change (%, negative = inhibition) at 10uM": 17.6}
{"compound": "Cc1ccc2c(c1)nnn2C1CCN(S(=O)(=O)c2cccc(S(=O)(=O)N(C)C)c2)CC1", "hERG current change (%, negative = inhibition) at 10uM": -16.7}
{"compound": "Cn1c(SCC(=O)NCc2ccco2)nnc1C1CCCC1", "hERG current change (%, negative = inhibition) at 10uM": 7.74}
{"compound": "CC1CN(C(=S)Nc2cccc(Cl)c2)CC(C)O1", "note": "(centres unmarked)", "hERG current change (%, negative = inhibition) at 10uM": 14.1}
{"compound": "COc1ccc(/C=N/NS(=O)(=O)c2ccc(F)cc2)cc1CN1CCSCC1", "hERG current change (%, negative = inhibition) at 10uM": -32}
{"compound": "Cc1ccc(C)c(NC(=O)CCNS(=O)(=O)c2ccc3[nH]c(=O)oc3c2)c1", "hERG current change (%, negative = inhibition) at 10uM": 11.4}
{"compound": "O=C(c1ccc(C(F)(F)F)cc1)N1CCC(=O)N(C(COCc2ccccc2)Cc2ccccc2)CC1", "note": "(centres unmarked)", "hERG current change (%, negative = inhibition) at 10uM": -23.2}
{"compound": "Cc1cccc(C(=O)Nc2ccc(O)cc2C(=O)O)c1", "hERG current change (%, negative = inhibition) at 10uM": -7.43}
{"compound": "CC1CCCCN1S(=O)(=O)c1ccc(C(=O)Nc2nnc(-c3ccccn3)o2)cc1", "note": "(centres unmarked)", "hERG current change (%, negative = inhibition) at 10uM": 19.5}
{"compound": "Cc1cc(=O)c2ccc(Cl)cc2[nH]1", "hERG current change (%, negative = inhibition) at 10uM": 11.3}
{"compound": "Br.CC(C)(C)C(=O)CN1C2=NCCN2c2ccccc21", "hERG current change (%, negative = inhibition) at 10uM": -32.1}
{"compound": "CN(C)C1=NC[C@H](Cc2ccccc2)N1CC1CCC(C(C)(C)C)CC1", "note": "(some centres unmarked)", "hERG current change (%, negative = inhibition) at 10uM": -31.4}
{"compound": "CN(C)c1ccc(/C=C(\\NC(=O)c2ccccc2)C(=O)NCCCN2CCOCC2)cc1", "hERG current change (%, negative = inhibition) at 10uM": -10.4}
{"compound": "O=C1OC(Nc2cc(Br)cc3cccnc23)c2ccccc21", "note": "(centres unmarked)", "hERG current change (%, negative = inhibition) at 10uM": -9.92}
{"compound": "Cc1cc(=O)n2c(ccc3ccccc32)c1C#N", "hERG current change (%, negative = inhibition) at 10uM": -14.4}
{"compound": "FC(F)(F)c1cccc(NC(=S)NC2CCCC2)c1", "hERG current change (%, negative = inhibition) at 10uM": 8.3}
{"compound": "CCCCCCCCCCCC1=C(O)C(=O)C=C(O)C1=O", "hERG current change (%, negative = inhibition) at 10uM": 18.3}
{"compound": "O=C(NCCCN1CCCC1=O)c1cc(-c2cccnc2)nc2ccc(Cl)cc12", "hERG current change (%, negative = inhibition) at 10uM": -26.8}
{"compound": "CSc1nnc(NC(=O)C23CC4CC(CC(C4)C2)C3)s1", "hERG current change (%, negative = inhibition) at 10uM": 10.2}
{"compound": "Cc1ccc(C(=O)NC(=S)N2CCCCCC2)cc1", "hERG current change (%, negative = inhibition) at 10uM": -20}
{"compound": "Cc1ccc(C(=O)N/C(=C/c2ccc(Cl)cc2)C(=O)NCC2CCCO2)cc1", "note": "(centres unmarked)", "hERG current change (%, negative = inhibition) at 10uM": -48.7}
{"compound": "CCC(C)NC(=O)CSc1nc2ccsc2c(=O)n1NC(=O)c1ccccc1", "note": "(centres unmarked)", "hERG current change (%, negative = inhibition) at 10uM": 4.75}
{"compound": "CCCN1C2CCCC1CC(NC(=S)Nc1cc(C)cc(C)c1)C2", "note": "(centres unmarked)", "hERG current change (%, negative = inhibition) at 10uM": -83.7}
{"compound": "O=C(CSC1=NCCS1)NC1CCCC1", "hERG current change (%, negative = inhibition) at 10uM": 8.6}
